Experimental data reported in PubChem BioAssay AID504832 (National Center for Advancing Translational Sciences (NCATS), 2011).
Screen size: about 310,000 compounds; about 18,000 (5.8%) were called active. Inconclusive means that the source gave no clear call. Such entries were picked first, then a sample of the others. Calls come from the whole dose curve; as a rule, active = well fitted inhibition curve with a large enough effect; inconclusive = small, poorly fitted or top-dose-only effect, or another doubt; inactive = no such curve, though single readings can be large or run the other way. No potency is given beside an inconclusive call; the fits are too rough.

Test: Primary qHTS for delayed death inhibitors of the malarial parasite plastid, 48 hour incubation
Details: P. falciparum luciferase growth in erythrocytes; series mostly up to 28.7 µM
Description: The goal of this screen is to discover new antimalarial compounds that act by inhibiting the development of the apicoplast in the malarial parasite Plasmodium falciparum. The biochemical processes that make this organelle essential for erythrocytic stage parasites are not well understood. However, antibiotics such as azithromycin and tetracycline, which target the apicoplast translational machinery, have a potent antimalarial effect.
We have developed a cell-based assay that measures parasite growth based on the expression of an integrated copy of a firefly luciferase reporter. To detect small molecules that cause this "delayed death" phenotype, erythrocytes infected with the luciferase-expressing parasites were incubated with compounds for either one or two generations, corresponding to 48 and 96 hours, respectively. Compounds that inhibit parasite growth in the second generation, but not the first, should be enriched in antimalarials that target the apicoplast. Growth inhibition is detected by a decrease in luciferase activity.
Assay Provider: David Fidock and Eric Ekland, Columbia University
Keywords: NIH Roadmap, MLPCN, MLI, MLSMR, qHTS, NCGC, qHTS, malaria, luciferase, viability
Four microliters of culture medium (RPMI 1640 with 0.5% w/v Albumax (GIBCO), 24 mM sodium bicarbonate and 10 ug/mL gentamycin) were dispensed by a Multi-drop Combi into white solid 1536-well plates (Grenier) and 23 nL compound was added by a pin tool. Four microliters of infected erythrocytes (2% hematocrit, 0.1% parasitemia final concentration) in culture medium were dispensed and the plates incubated for 48 hours at 37 C in 5% CO2. Two microliters of luciferase detection reagent was added and luminescence was detected by a ViewLux (PerkinElmer) reader.
% is set by controls: 0 for no effect and ±100 for the full control effect; potency is the fitted concentration of half-maximal effect; tags give direction and shape of the fitted curve.

| Compound | Potency | activity change, negative = inhibition |
| --- | --- | --- |
| C=CCNC(=O)c1ccc2c(=O)n(CCCN3CCCC3=O)c(=S)[nH]c2c1 | inconclusive [inhibitor, partial curve] | – |
| CCn1cc(/C=C(\NC(=O)c2ccc(OC)cc2)C(=O)N2CCN(C)CC2)c2ccccc21 | inconclusive [inhibitor, single point] | – |
| O=S(=O)(Nc1cc(Cl)ccc1-n1cncn1)c1cc(Br)ccc1Br | inconclusive [inhibitor, single point] | – |
| C=CCn1c(O)c(C2=c3ccccc3=NC2=O)c2ccccc21 | inconclusive [inhibitor, partial curve, poor fit] | – |
| O=C1CSC(=Nc2ccc(O)cc2)N1 | – | inactive: 2.35% [at 0.00184 µM] |
| O=C(O)CNC(=O)/C=C/c1c(Cl)cccc1Cl | inconclusive [inhibitor, single point] | – |
| O=C(O)CNC(=S)NCc1ccccc1 | active: 13.1 µM | – |
| O=C(Nc1cccc(-c2nc3ccccc3[nH]2)c1)c1cccc(NC(=O)c2ccco2)c1 | inconclusive [inhibitor, full curve] | – |
| CCOC(=O)C1=C(C)NC(C)=C(C(=O)OCC)C1c1ccc(OC)cc1 | inconclusive [inhibitor, partial curve] | – |
| CCC1CCCCN1CCCNC(=O)c1ccc2c(c1)c(C)c(C)n2C (configuration not stated) | inconclusive [inhibitor, single point] | – |
| Cc1cc(S(=O)(=O)NCC2CCCO2)c(C)cc1Br (configuration not stated) | inactive | – |
| Cc1cc(N2CCN(c3ccccc3)CC2)n2c(n1)nc1ccccc12 | active: 5.86 µM | – |
| COc1cccc(-c2noc(Cn3nc(C)c([N+](=O)[O-])c3C)n2)c1 | inconclusive [inhibitor, single point] | – |
| Cc1[nH]n(C(N)=S)c(=O)c1N=Nc1ccc([N+](=O)[O-])cc1Cl | inactive | – |
| Cc1ccc(N=Nc2c(N)[nH]n3c(=O)cc(-c4ccccc4)nc23)cc1 | inconclusive [inhibitor, single point] | – |
| O=C(Cc1ccc(S(=O)(=O)N2CCOCC2)s1)OCc1ccc(Cl)cc1 | inconclusive [inhibitor, partial curve] | – |
| OC(CCCN1CCC(O)(c2ccc(Cl)cc2)CC1)c1ccc(F)cc1 (configuration not stated) | inconclusive [inhibitor, single point] | – |
| CN(C(=O)COC(=O)CCC1CCCCC1)c1c(N)n(Cc2ccccc2)c(=O)[nH]c1=O | inactive | – |
| Cc1ccc(NC(=O)C2CCCN(S(=O)(=O)c3ccc4[nH]c(=O)ccc4c3)C2)nc1 (configuration not stated) | inconclusive [inhibitor, single point] | – |
| CCOC(=O)N1CCC(NC(=O)c2ccc3c(c2)ncn3C2CCCC2)CC1 | inconclusive [inhibitor, single point] | – |
| CC(=O)N1CCC(=NNc2nc3ccccc3[nH]2)CC1 | inconclusive [inhibitor, full curve, poor fit] | – |

| Compound | Potency | activity change, negative = inhibition |
| --- | --- | --- |
| Cc1cccc(Nc2nc(N)nc(-c3oc4ccccc4c3C)n2)c1 | inconclusive [inhibitor, single point] | – |
| O=C(NCc1ccc(Cl)cc1)C1CCC(CNc2c(N3CCOCC3)c(=O)c2=O)CC1 (configuration not stated) | inconclusive [inhibitor, partial curve] | – |
| CCOC(=O)N1CCN(Cc2cc(Cl)c3cccnc3c2O)CC1 | active: 2.62 µM | – |
| O=C(NC1CCN(Cc2ccccc2)CC1)C1CCN(S(=O)(=O)c2cccc([N+](=O)[O-])c2)CC1 | inconclusive [inhibitor, single point] | – |
| Cc1cc(C(=O)N2CCCC2)n[nH]1 | inconclusive [inhibitor, full curve, poor fit] | – |
| Clc1cccc(C2NCc3ccccc3-n3cccc32)c1 (configuration not stated) | inconclusive [inhibitor, partial curve, poor fit] | – |
| C(=N\Nc1nccc(-c2cccnc2)n1)/c1ccccc1 | inconclusive [inhibitor, single point] | – |
| O=C(COc1cccc(Cl)c1)Nc1ccccc1N1CCCCC1 | inconclusive [inhibitor, partial curve] | – |
| Cc1nc(NC(=O)c2ccccc2)sc1C1(C)CC(c2c(Cl)cccc2Cl)=NO1 (configuration not stated) | active: 13.1 µM | – |
| Cc1ccccc1C1=NCC(=O)N(CC(=O)N2CCCCC2)c2sc(C)c(C)c21 | inconclusive [inhibitor, partial curve, poor fit] | – |
| O=C(c1ccco1)N1CCN(C(=S)Nc2cccc([N+](=O)[O-])c2)CC1 | inactive | – |
| CC(C)CN(CC(C)C)CC(O)COc1ccccc1Br (configuration not stated) | inconclusive [inhibitor, partial curve] | – |
| O=C(Nc1nnc(-c2ccc(F)cc2)o1)c1ccc(S(=O)(=O)N2CCOCC2)cc1 | inconclusive [inhibitor, single point] | – |
| C/C=C(\C)C(=O)NCCN1C2=NC[C@H](Cc3ccc(O)cc3)N2C[C@@H]1Cc1ccc(OC)cc1 | inconclusive [inhibitor, partial curve, poor fit] | – |
| CC(=O)c1cccc(NC(=O)c2ccc(N(Cc3ccccc3C)S(C)(=O)=O)cc2)c1 | inconclusive [inhibitor, single point] | – |
| O=S(=O)(c1ccccc1)c1nc(-c2ccccc2)oc1NCCCN1CCOCC1 | inconclusive [inhibitor, single point] | – |
| CCCCCCCCSc1nnc2[nH]c(=O)cc(N)n12 | inactive | – |
| CCOc1ccc(C(=O)Nc2cc(-c3nc4ccccc4[nH]3)ccc2Cl)cc1[N+](=O)[O-] | inconclusive [inhibitor, single point] | – |
| CCN(CC)S(=O)(=O)c1ccc(Cl)c(NC(=O)COC(=O)/C=C/c2ccc(O)c(OC)c2)c1 | inactive | – |
| Cc1sc2ncnc(N3CCC(C)CC3)c2c1C | inconclusive [inhibitor, single point] | – |
| CCCN1CCN(CCCNC(=O)c2ccc3c(Cl)c4c(nc3c2)CCCC4)CC1 | inconclusive [inhibitor, single point] | – |
